Data taken from PubChem BioAssay AID651820 (National Center for Advancing Translational Sciences (NCATS), 2012).
Among all 340,000 compounds or so, about 12,000 (3.5%) were called active. The shares of active, inactive and inconclusive entries below differ from those in the screen. The call rests on the fitted dose curve; in most records, active means well fitted inhibition curve with a large enough effect; inconclusive means small, poorly fitted or top-dose-only effect, or another doubt; inactive means no such curve, though single readings can be large or run the other way. No potency is given beside an inconclusive call; the fits are too rough.

Assay: qHTS Assay for Inhibitors of Hepatitis C Virus (HCV)
Settings: Huh7.5.1 HCVcc-Cre (HCVcc is cell-culture hepatitis C virus) infection, luciferase reporter, 44 h; activity change, negative = inhibition: at 41.8 µM (top of the series) unless noted
Method in brief: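 Seed cells (1,000/well) for 4 h; treat with compound and infect with HCVcc-Cre, moi about 0.5. Incubate 44 h, then detect luciferase activity.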
On the % scale 0 is the no-effect control and ±100 the full control effect; potency means the concentration at half of the fitted maximal effect; tags describe the fitted curve by direction and shape.

Structure (SMILES)	Potency	activity change, negative = inhibition
CC1CCc2c(sc(NC(=O)c3cccs3)c2C(=O)O)C1 (stereo unspecified)	inconclusive [inhibitor, single point]	–
Cc1ccc(OCCNC(=O)C2CC(=O)N(c3ccc(C)cc3)C2)cc1 (stereo unspecified)	inconclusive [inhibitor, single point]	–
Cc1ccccc1CS(=O)(=O)c1cnc2ccccc2n1	inconclusive [inhibitor, single point]	–
Cc1sc(NC(=O)c2ccc(F)cc2)c(CN2CCCCCC2)c1C	inconclusive [inhibitor, single point]	–
CN(C)c1ccc(C(=O)OCC(=O)NCCC2=CCCCC2)cc1	inconclusive [inhibitor, single point]	–
O=C(NNc1nc(-c2ccccc2)c2cc(Br)ccc2n1)c1ccc(S(=O)(=O)N2CCCCC2)cc1	inactive	–
CCCCn1c(SCC(=O)NC(=O)NCc2ccco2)nc2cc(S(N)(=O)=O)ccc21	inconclusive [inhibitor, full curve]	–
O=C(N/N=C(\c1ccccc1)c1ccccn1)c1ccccc1Cl	inconclusive [inhibitor, full curve]	–
COCCCNCCCCOc1c(Cl)cc(C)cc1Br	inconclusive [inhibitor, partial curve]	–
Cc1cccc(COCC(Cc2ccccc2)N2CCN(C(=O)c3cc(Cl)cc(Cl)c3)CCC2=O)c1 (stereo unspecified)	–	inactive: -1.82% [at 8.37 µM]
CCOc1ccc(-c2nc(C#N)c(NC3CC3)o2)cc1	inconclusive [inhibitor, single point]	–
COC(=O)c1ccc(Cc2ccc(C(=O)OC)o2)o1	inactive	–
Clc1ccc(Cn2ccc(-c3ccc4c(c3)OCO4)n2)cc1Cl	active: 25.1 µM	–
CCCCCc1nnc(NC(=O)c2cccc(S(=O)(=O)N3CCOCC3)c2)s1	inconclusive [inhibitor, single point]	–
COc1ccc(N2CCN(C(CNC(=O)C(=O)NC3CC3)c3ccco3)CC2)cc1 (stereo unspecified)	inactive	–
CCOc1c(Cl)cc(CNCc2ccccn2)cc1OC	inactive	–
Cc1cc2c3c(c1)C1(SCC(=O)N1c1ccc(F)cc1)C(=O)N3C(C)(C)CC2C (stereo unspecified)	inconclusive [inhibitor, single point]	–
O=C(COC(=O)COc1ccccc1)NCc1ccc2c(c1)OCO2	inactive	–
Cc1ccc(NC(=O)CN(C)C(=O)c2cc(-c3ccccc3)nn2-c2ccccc2)cc1	inconclusive [inhibitor, full curve]	–
Clc1ccccn1	inconclusive [inhibitor, single point]	–
O=C(O)C1=CC2c3ccccc3C1c1ccccc12	inactive	–
COc1ccc(OC)c(-n2c(C)nc3cc(C(=O)O)ccc32)c1	inactive	–
Cc1ccc(S(=O)(=O)N2CCN(C(=O)Cc3ccsc3)CC2)c(C)c1	inconclusive [inhibitor, partial curve]	–

Structure (SMILES)	Potency	activity change, negative = inhibition
O=C(CSc1nnc(CNC(=O)c2ccccc2F)o1)NC1CCCCC1	inconclusive [inhibitor, single point]	–
C[C@H]1CN([C@@H](C)CO)C(=O)Cc2cc(NS(=O)(=O)c3cn(C)cn3)ccc2O[C@@H]1CN(C)C(=O)Nc1ccc(F)cc1	inactive	–
CCOc1cccc(-n2nnnc2-c2ccc(OC)cc2)c1	inconclusive [inhibitor, partial curve]	–
CN1CCc2nc(NC(=O)COc3ccc(C#N)cc3)sc2C1	inactive	–
Cn1c(SCc2ccccc2)nc(N)c(N=O)c1=O	inconclusive [inhibitor, single point]	–
O=C(NCCc1csc(-c2cccnc2)n1)c1ccc(Br)o1	inconclusive [inhibitor, single point]	–
CCCC(=O)Nn1cnc2c(c1=O)C1(CCCCC1)Cc1ccccc1-2	inconclusive [inhibitor, partial curve]	–
CCCOc1ccc(C2=CSC3=NCCN23)cc1Cl	active: 11.2 µM	–
Cc1ccc(NC(=S)NC(=O)c2ccc(-c3ccccc3)cc2)c(C)c1	inconclusive [inhibitor, partial curve]	–
CCCCCNc1nc2ccccc2nc1NS(=O)(=O)c1cccs1	inactive	–
CC1CCC(C(C)C)C(OC(=O)CSc2n[nH]c(=O)[nH]c2=O)C1 (stereo unspecified)	inconclusive [inhibitor, single point]	–
O=C(CCl)Nc1cn(-c2ccccc2)nc1-c1ccc(F)cc1	inconclusive [inhibitor, single point]	–
COC(=O)CC1C(=O)NCCN1C(=O)c1cc(OC)c(OC)cc1OC (stereo unspecified)	inactive	–
CN(CC(=O)Nc1nc2ccccc2s1)S(=O)(=O)c1ccc(Cl)cc1	inconclusive [inhibitor, partial curve]	–
CCN(c1ccccc1C)S(=O)(=O)c1nnc(NC(=O)c2ccco2)s1	inactive	–
COc1ccc(C2c3cc4c(cc3OC(NNC(N)=O)C2C)OCO4)cc1 (stereo unspecified)	inconclusive [inhibitor, full curve, poor fit]	–
O=C(Nc1cnn(Cc2ccc(F)cc2)c1)c1cc(-c2cccs2)on1	active: 8.91 µM	–
O=C1CN(C(=O)CSc2nc3ccccc3c(=O)n2Cc2ccc(F)cc2)c2ccccc2N1	inconclusive [inhibitor, partial curve]	–
CCC(C)(C)n1nnnc1C(c1ccc(C)cc1)N1CCN(Cc2ccc3c(c2)OCO3)CC1 (stereo unspecified)	inconclusive [inhibitor, single point]	–
O=C(c1ccc(Cl)c(S(=O)(=O)N2CCCC2)c1)N1CCN(Cc2ccccc2)CC1	inconclusive [inhibitor, single point]	–
O=C(NCc1ccncc1)C1CCN(S(=O)(=O)c2ccc(Cl)c(C(F)(F)F)c2)CC1	inactive	–
COCCNC(=O)c1cccc(OC2CCN(Cc3ccccc3C)CC2)c1	inactive	–
Cc1cc(C(=O)Nc2cccc(S(=O)(=O)N3CCCC3)c2)c2ccccc2n1	inconclusive [inhibitor, full curve, poor fit]	–
